Out of some 410,000 compounds screened, about 260 (0.063%) were called active. Inconclusive results, whose numbers are uncertain, are shown with a selection of clear calls. Calls follow the shape of the dose curve; as a rule, active = well fitted activation curve with a large enough effect; inconclusive = small, poorly fitted or top-dose-only effect; inactive = no such curve, though single readings can be large or run the other way. No potency is given beside an inconclusive call; the fits are too rough.
Experiment: qHTS for compounds that reverse cellular toxicity of Amyloid beta (A-beta) peptide in yeast: Primary Screen; also: nearly all actives have a fitted effect of over 55% in size
Settings: yeast expressing A-beta42, growth rescue, OD600, 48 h; growth rescue: at 46.1 µM (top of the series), 0% DMSO, 100% iron-clioquinol control
Outline: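 Yeast growth medium received pinned compounds, then yeast cells expressing toxic A-beta were added; plates incubated at 30 C for 48 hr. Growth read as absorbance at 600 nm, normalized to DMSO and equimolar FeCl3 plus clioquinol controls.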
Potency is read from the fitted curve at half-maximal effect; tags tell the direction and shape of the fitted curve.

**Q.** For CC(C)c1ccc(NC(=S)Nc2cccc3ccccc23)cc1, which Potency is on record?
**A.** Its Potency is inconclusive [activator, partial curve, poor fit].

**Q.** With Cc1ccc(OCCNC(=O)CCc2ccccc2)cc1C as the compound, how does the Potency read?
**A.** The Potency was inconclusive [activator, partial curve, poor fit].

**Q.** With Nc1nc(SCc2ccc(F)cc2)ns1 as the compound, how does the Potency read?
**A.** Its Potency is inconclusive [activator, single point].

**Q.** For C=CCOc1cccc(CNCc2cccnc2)c1, which Potency is on record?
**A.** Its Potency is inconclusive [activator, partial curve, poor fit].

**Q.** With Cc1cccc(OC(C)c2ccnc3nc(/N=C/N(C)C)nn23)c1 (stereo unspecified) as the compound, how does the Potency read?
**A.** The Potency was “inactive”.

**Q.** Which Potency does the source give for Cc1ccc(SCC(=O)O/N=C(\N)c2cccc([N+](=O)[O-])c2)cc1 here?
**A.** The Potency was inconclusive [activator, single point].

**Q.** For COc1ccc2[nH]c(-c3ccccc3)cc2c1, which Potency is on record?
**A.** Its Potency is “inactive”.

**Q.** For Cc1cc(C)nc(SCc2ccc(C(=O)NNC(=O)Nc3cccc(Cl)c3)cc2)n1, which Potency is on record?
**A.** The Potency was inconclusive [activator, partial curve, poor fit].

**Q.** With CN(C)c1ccc(C2C3C(=O)NC(=O)C3ON2c2ccc(Cl)cc2)cc1 (stereo unspecified) as the compound, how does the Potency read?
**A.** Its Potency is inconclusive [activator, partial curve, poor fit].

**Q.** Which Potency does the source give for O=C(Cn1c(-c2cccs2)cc2ccccc21)NCCCN1CCN(c2ccc(F)cc2)CC1 here?
**A.** Its Potency is “inactive”.

**Q.** With NC(c1ccc(F)c(F)c1)c1nc(-c2cc(F)cc(F)c2)cs1 (stereo unspecified) as the compound, how does the Potency read?
**A.** Its Potency is inconclusive [activator, single point].

**Q.** Which Potency does the source give for Cc1ccc(C)c(-c2nnc(NC(=O)C3=COCCO3)o2)c1 here?
**A.** The Potency was inconclusive [activator, partial curve, poor fit].

**Q.** For Cn1c(CC(=O)NC(C)(C)CO)c(Sc2ccccc2)c2ccccc21, which Potency is on record?
**A.** Its Potency is inconclusive [activator, single point].

**Q.** With COc1ccc2oc(=O)c(-c3csc(Nc4cccc(O)c4)n3)cc2c1 as the compound, how does the Potency read?
**A.** Its Potency is “inactive”.

**Q.** With CCN(C(=O)C1CCC(CNS(=O)(=O)c2cccc3nsnc23)CC1)c1ccccc1 (stereo unspecified) as the compound, how does the Potency read?
**A.** Its Potency is “inactive”.

**Q.** Which Potency does the source give for Cc1ccc(-c2c(C#N)c(N)n(-c3ccc(C)cc3)c(=O)c2C#N)cc1 here?
**A.** The Potency was inconclusive [activator, full curve, poor fit].

**Q.** Which Potency does the source give for Cc1ccc(CN2C(=O)c3ccccc3Sc3ccc(C(=O)NCc4ccco4)cc32)cc1 here?
**A.** Its Potency is “inactive”.

**Q.** Which Potency does the source give for Cc1ccc(NC(NC(=O)Cc2ccccc2)C(Cl)(Cl)Cl)cc1 (stereo unspecified) here?
**A.** The Potency was inconclusive [activator, full curve, poor fit].

**Q.** For CC(C)(C)c1ccc(C(=O)NNc2ncnc3c2cnn3-c2ccccc2)cc1, which Potency is on record?
**A.** Its Potency is “inactive”.

**Q.** Which Potency does the source give for CCOc1ccc(S(=O)(=O)N2CCC(N3CCN(Cc4ccc(F)cc4)C(=O)C3=O)CC2)cc1 here?
**A.** Its Potency is “inactive”.

**Q.** For O=C(O)/C=C/C(=O)Nc1ccc(-n2ccc(C(F)(F)F)n2)cc1, which Potency is on record?
**A.** The Potency was inconclusive [activator, partial curve, poor fit].

**Q.** Which Potency does the source give for O=C(NCCc1c[nH]c2ccccc12)c1ccccc1 here?
**A.** Its Potency is “inactive”.

**Q.** For Oc1ccc(C[C@@H]2CNC(=S)N2CCc2cc(C(F)(F)F)cc(C(F)(F)F)c2)cc1, which Potency is on record?
**A.** Its Potency is “inactive”.

**Q.** Which Potency does the source give for Cc1ccccc1C(=O)NC(=S)NCc1ccccc1 here?
**A.** Its Potency is inconclusive [activator, single point].

**Q.** Which Potency does the source give for COc1ccc2nc3oc(C(=O)N4CCCCC4)cc3cc2c1 here?
**A.** Its Potency is “inactive”.

**Q.** With CC(C)=C1C2CCC1C1C(=O)N(c3ccc4c(c3)OCO4)C(=O)C21 (stereo unspecified) as the compound, how does the Potency read?
**A.** The Potency was inconclusive [activator, full curve].

**Q.** For CC(c1ccccc1)n1c(-c2ccc(C(C)(C)C)cc2)n[nH]c1=S (stereo unspecified), which Potency is on record?
**A.** Its Potency is inconclusive [activator, partial curve, poor fit].

**Q.** For O=C(NC1CCCCCC1)c1ccc(S(=O)(=O)NCc2ccco2)cc1, which Potency is on record?
**A.** Its Potency is “inactive”.

**Q.** Which Potency does the source give for O=C(/C=C/c1ccco1)NC(=S)Nc1ccccc1N1CCOCC1 here?
**A.** The Potency was “inactive”.

**Q.** Which Potency does the source give for C=CCc1cccc(CNc2nc3ccccc3n2CCC)c1O here?
**A.** Its Potency is inconclusive [activator, single point].

**Q.** Which Potency does the source give for N/C(=N\OC(=O)CCC1CCCCC1)c1cccc([N+](=O)[O-])c1 here?
**A.** Its Potency is “inactive”.

**Q.** With COc1ccccc1/C=N/NC(=O)CN(C1=NS(=O)(=O)c2ccccc21)c1ccccc1 as the compound, how does the Potency read?
**A.** The Potency was inconclusive [activator, full curve, poor fit].

**Q.** Which Potency does the source give for Cc1ccc(S(=O)(=O)N2CCC(=O)N([C@H](COCc3ccc(C(F)(F)F)cc3)Cc3ccccc3)CC2)cc1 here?
**A.** Its Potency is inconclusive [activator, partial curve].

**Q.** With CC(C)NC(=O)C1(C)Cc2c(-c3ccc(N(C)C)cc3)ccnc2O1 (stereo unspecified) as the compound, how does the Potency read?
**A.** Its Potency is “inactive”.

**Q.** With CC1CCCC(NC(=O)COC(=O)c2cccs2)C1C (stereo unspecified) as the compound, how does the Potency read?
**A.** The Potency was inconclusive [activator, partial curve, poor fit].

**Q.** Which Potency does the source give for CC(=O)N1CCN(c2ccc([N+](=O)[O-])c(-n3nc(C)cc3C)c2)CC1 here?
**A.** The Potency was inconclusive [activator, partial curve, poor fit].

**Q.** For O=C(NCCc1csc(-c2ccccc2)n1)c1cccs1, which Potency is on record?
**A.** The Potency was “inactive”.

**Q.** For CC(C)(C)NC(=O)C(c1cccc2ccccc12)n1c(=O)c(-c2cc3ccccc3[nH]2)nc2ccccc21 (stereo unspecified), which Potency is on record?
**A.** The Potency was inconclusive [activator, full curve].

**Q.** With CCOc1ccc(CNC(=O)c2ccc3nc(CC)c(CC)nc3c2)cc1 as the compound, how does the Potency read?
**A.** Its Potency is “inactive”.

**Q.** Which Potency does the source give for Cc1ccc(Nc2c(-c3ccc(Cl)cc3)nc3sccn23)c(C)c1 here?
**A.** Its Potency is inconclusive [activator, single point].

**Q.** For COc1ccc(-c2csc(C(O)c3ccc(F)c(F)c3)n2)cn1 (stereo unspecified), which Potency is on record?
**A.** The Potency was inconclusive [activator, partial curve].

**Q.** Which Potency does the source give for CC(C)CCNC(=O)/C=C/c1ccc(Br)cc1 here?
**A.** Its Potency is “inactive”.

**Q.** For Cc1ccccc1-n1c(C)nnc1SCC(=O)N(C)C1CCS(=O)(=O)C1 (stereo unspecified), which Potency is on record?
**A.** The Potency was inconclusive [activator, partial curve, poor fit].

**Q.** Which Potency does the source give for CCOc1ccc(C(=O)Nc2ccccc2CC)cc1[N+](=O)[O-] here?
**A.** Its Potency is inconclusive [activator, partial curve, poor fit].

**Q.** With Cc1ccc(NC(=O)Cc2coc3ccc(C(C)C)cc23)c(C)c1 as the compound, how does the Potency read?
**A.** Its Potency is “inactive”.

**Q.** For Cc1ccc(-n2nnnc2-c2ccccc2)cc1, which Potency is on record?
**A.** Its Potency is “inactive”.

**Q.** With CC(C)(C)c1ccc(C(=O)Nc2ccccc2Cl)cc1 as the compound, how does the Potency read?
**A.** Its Potency is inconclusive [activator, single point].

**Q.** Which Potency does the source give for Cn1c(CSc2nc3ccccc3s2)n[nH]c1=S here?
**A.** The Potency was inconclusive [activator, partial curve, poor fit].

**Q.** With CC1CN(C(=O)N2CCC(C(=O)N3CCN(c4ccccc4)CC3)CC2)c2cc(Cl)ccc2O1 (stereo unspecified) as the compound, how does the Potency read?
**A.** The Potency was inconclusive [activator, single point].

**Q.** Which Potency does the source give for COc1ccc(OCC(=O)NNC(=O)c2ccccn2)cc1 here?
**A.** Its Potency is inconclusive [activator, single point].

**Q.** For C[C@]1(CO)CCC[C@@]2(C)C1CC[C@@H](CO)[C@@H]2CCc1ccoc1 (stereo partly specified), which Potency is on record?
**A.** Its Potency is inconclusive [activator, partial curve].

**Q.** With O=S1(=O)N=C(N/N=C/c2ccccn2)c2ccccc21 as the compound, how does the Potency read?
**A.** Its Potency is inconclusive [activator, partial curve, poor fit].

**Q.** For O=C(/C=C/c1ccc(Cl)c([N+](=O)[O-])c1)Nc1cccc(NC(=O)c2ccco2)c1, which growth rescue is on record?
**A.** Its growth rescue is inconclusive: -40% [activator].

**Q.** With O=C1c2ccccc2NC2CCCCCN12 (stereo unspecified) as the compound, how does the Potency read?
**A.** The Potency was “inactive”.

**Q.** For Cc1ccc(S(=O)(=O)c2nc(Nc3ccccc3)sc2Cl)cc1, which Potency is on record?
**A.** Its Potency is inconclusive [activator, partial curve, poor fit].

**Q.** Which Potency does the source give for Nc1cc(N)nc(SCC(=O)N2CCCCC2)n1 here?
**A.** Its Potency is “inactive”.

**Q.** Which Potency does the source give for Cc1ccc(NC(=S)NC(=O)C2CCCC2)cc1C here?
**A.** Its Potency is active: 8.91 µM.

**Q.** With N#Cc1ncc(C(F)(F)F)cc1Sc1ccccc1N as the compound, how does the Potency read?
**A.** The Potency was inconclusive [activator, partial curve].

**Q.** With COc1ccc(OCCCCc2c(C)n[nH]c2C)cc1 as the compound, how does the Potency read?
**A.** The Potency was inconclusive [activator, single point].

**Q.** Which Potency does the source give for Cc1ccc(C(=O)N/N=C\c2ccc(-c3ccc(Cl)cc3)o2)cn1 here?
**A.** Its Potency is inconclusive [activator, partial curve, poor fit].

**Q.** For CCCN(CC1CC1)C(=S)NC(=O)c1ccc(S(=O)(=O)N2CCOCC2)cc1, which Potency is on record?
**A.** Its Potency is inconclusive [activator, single point].

**Q.** Which Potency does the source give for S=C(NC1CCCC1)N1CCN(c2ccc(Cl)cc2)CC1 here?
**A.** The Potency was inconclusive [activator, partial curve, poor fit].

**Q.** For CC1CCCC(C)N1C(=C(Cl)Cl)C(=C1SCCS1)[N+](=O)[O-] (stereo unspecified), which Potency is on record?
**A.** The Potency was inconclusive [activator, partial curve].

**Q.** With O=C(CSc1nccn1-c1cccc(Cl)c1)Nc1ccc2c(c1)OCCO2 as the compound, how does the Potency read?
**A.** Its Potency is “inactive”.

**Q.** For CCCCCCCCOc1ccc(C(=O)O)cc1, which Potency is on record?
**A.** The Potency was “inactive”.

**Q.** For c1ccn2cc(CSc3nnc4ccccn34)nc2c1, which Potency is on record?
**A.** Its Potency is inconclusive [activator, partial curve, poor fit].

**Q.** With O=C(COC(=O)/C=C/c1ccccc1)NC1CC1 as the compound, how does the Potency read?
**A.** The Potency was “inactive”.

**Q.** Which Potency does the source give for COc1cccc(C(C)(O)c2nc(-c3ccc4ccccc4c3)cs2)c1 (stereo unspecified) here?
**A.** Its Potency is inconclusive [activator, single point].

**Q.** With Cc1cccc(NC(=S)Nc2cccc3ccccc23)c1 as the compound, how does the Potency read?
**A.** The Potency was inconclusive [activator, partial curve, poor fit].

**Q.** For O=C(CCSc1ccccc1)NC(=O)COC(=O)C1CCCCC1, which Potency is on record?
**A.** The Potency was inconclusive [activator, partial curve].

**Q.** For Cc1cc(OC(F)F)ccc1NC(=S)NCCc1ccccc1, which Potency is on record?
**A.** The Potency was inconclusive [activator, single point].

Reference: PubChem BioAssay AID1347071 (National Center for Advancing Translational Sciences (NCATS), 2019)
